Data published in the supplement of paper PMC10600219.
Structures can show the parent of a compound that is named as a salt. The full ranking holds about 2,800 compounds; the median of “cell viability relative to vehicle” is about 1.1, and the lowest 2% start at about 0.19. Some of the results follow.

test system: NCI-H2228 parental; experiment: cell viability relative to vehicle (fraction of vehicle); NCI-H2228 is an ALK-positive lung cancer line and DTP means drug-tolerant persister; higher = less growth inhibition; details: 100 nM; treatment time 6 days
Summary of the method: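 NCI-H2228 parental cells and drug-tolerant persister cells were plated in 384-well plates; the persisters had been generated with 1000 nM of a targeted drug over 13 days. One day later, the 3114-agent TargetMol anti-cancer compound library was added at 100 nM, with DMSO serving as vehicle. ATP was measured 6 days after that using the CellTiter-Glo 3D Cell Viability Assay. Values are cell viability expressed relative to vehicle-treated cells.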

In order of falling cell viability:
1. Cc1cccc(-c2[nH]ncc2-c2ccnc3ccccc23)n1  1.18
2. Nc1ccc(Cl)cc1C(=O)O [2-Amino-5-chlorobenzoic acid]  1.16
3. CS(=O)(=O)CCNCc1ccc(-c2ccc3ncnc(Nc4ccc(OCc5cccc(F)c5)c(Cl)c4)c3c2)o1 [Lapatinib Ditosylate]  1.15
4. O=C(O)CCC(=O)Nc1ccc(Br)cn1 [Bikinin]  1.15
5. CC(C)(Oc1ccc(Cl)cc1)C(=O)O [Clofibric acid]  1.14
6. Cc1ccc(NC(=O)c2ccc(CN3CC[C@H](N(C)C)C3)c(C(F)(F)F)c2)cc1Nc1nccc(-c2cncnc2)n1 [Bafetinib]  1.12
7. O=C(Nc1ccc(O)cc1)c1ccccc1O [Osalmid]  1.11
8. CS(=O)(=O)CCNCc1ccc(-c2ccc3ncnc(Nc4ccc(OCc5cccc(F)c5)c(Cl)c4)c3c2)o1 [Lapatinib]  1.09
9. C=CC(=O)Nc1cccc(Nc2nc(Nc3ccc(N4CCN(C(C)=O)CC4)cc3OC)ncc2C(F)(F)F)c1 [Rociletinib]  1.07
10. COc1cc2ncc(-c3ccccc3)nc2cc1OC [Tyrphostin AG 1296]  1.07
11. N[C@@H](Cn1ccc(=O)c(O)c1)C(=O)O [L-Mimosine]  1.07
12. COC(=O)c1sccc1S(=O)(=O)Nc1ccc(Nc2ccccc2)cc1OC  1.02
13. COc1ccc(C(=O)Nc2sc3c(c2C(N)=O)CCCC3)cc1OC  1.02
14. C[C@@H]([C@H](C)O)[C@H](N)C(=O)O [(4S)-4-Hydroxy-L-isoleucine]  1
15. CC(=O)NO [Acetohydroxamic acid]  1
16. CCOc1ccc2c(-c3cccc(F)c3)nn(CC(=O)N(C)c3ccc4nc(C)oc4c3)c(=O)c2c1  0.997
17. O=S(=O)(c1cccc2c(I)cccc12)N1CCCNCC1 [ML-7 hydrochloride]  0.984
18. Nc1c(Br)cc(Br)cc1CN[C@H]1CC[C@H](O)CC1 [Ambroxol]  0.975
19. COc1cc(Nc2ncc(F)c(Nc3ccc4c(n3)NC(=O)C(C)(C)O4)n2)cc(OC)c1OC  0.974
20. COc1cc2ncnc(Nc3ccc(Oc4ccccc4)cc3C)c2cc1OC  0.96
21. CC(C)(Sc1cc(C(C)(C)C)c(O)c(C(C)(C)C)c1)Sc1cc(C(C)(C)C)c(O)c(C(C)(C)C)c1 [Probucol]  0.949
22. CC(=O)N[C@@H](CCC(N)=O)C(=O)O [Aceglutamide]  0.87
23. O=c1cc(N2CCNCC2)oc2c(-c3ccccc3)cccc12  0.836
24. COc1cc(Nc2ncc(F)c(Nc3ccc4c(n3)NC(=O)C(C)(C)O4)n2)cc(OC)c1OC [R406 free base]  0.721
25. CCC[C@H](Nc1nc(-c2ccc(NC(=O)NCC)c(OC)c2)ncc1C)c1cccnc1 [Lexibulin]  0.337
